Measured values as given in article PMC3207854.
No constants are given. Whether binding was seen depends on the method and setting. Some binding calls cover weakened binding; strength is not graded here. Tags and fused reporters may be left off the sequences shown.

T1: LexA-Pch2 (S. cerevisiae) (UniProt P38126)
T1 sequence: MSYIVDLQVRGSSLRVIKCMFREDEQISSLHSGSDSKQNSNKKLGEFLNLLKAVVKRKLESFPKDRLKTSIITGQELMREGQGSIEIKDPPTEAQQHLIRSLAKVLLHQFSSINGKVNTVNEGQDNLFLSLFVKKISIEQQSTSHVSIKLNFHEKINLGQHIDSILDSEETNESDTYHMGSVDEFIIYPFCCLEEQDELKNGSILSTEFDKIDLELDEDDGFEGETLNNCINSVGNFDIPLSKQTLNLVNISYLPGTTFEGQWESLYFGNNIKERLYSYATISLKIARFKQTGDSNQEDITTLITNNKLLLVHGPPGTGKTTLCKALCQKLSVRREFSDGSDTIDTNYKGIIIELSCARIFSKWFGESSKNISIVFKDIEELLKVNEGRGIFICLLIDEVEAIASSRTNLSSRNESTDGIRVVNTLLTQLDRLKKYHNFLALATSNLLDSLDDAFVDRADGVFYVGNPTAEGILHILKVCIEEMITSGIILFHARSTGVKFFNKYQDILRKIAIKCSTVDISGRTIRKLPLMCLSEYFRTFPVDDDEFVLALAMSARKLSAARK

T2: Mre11 (yeast two-hybrid construct) (S. cerevisiae) (UniProt P32829)
T2 sequence: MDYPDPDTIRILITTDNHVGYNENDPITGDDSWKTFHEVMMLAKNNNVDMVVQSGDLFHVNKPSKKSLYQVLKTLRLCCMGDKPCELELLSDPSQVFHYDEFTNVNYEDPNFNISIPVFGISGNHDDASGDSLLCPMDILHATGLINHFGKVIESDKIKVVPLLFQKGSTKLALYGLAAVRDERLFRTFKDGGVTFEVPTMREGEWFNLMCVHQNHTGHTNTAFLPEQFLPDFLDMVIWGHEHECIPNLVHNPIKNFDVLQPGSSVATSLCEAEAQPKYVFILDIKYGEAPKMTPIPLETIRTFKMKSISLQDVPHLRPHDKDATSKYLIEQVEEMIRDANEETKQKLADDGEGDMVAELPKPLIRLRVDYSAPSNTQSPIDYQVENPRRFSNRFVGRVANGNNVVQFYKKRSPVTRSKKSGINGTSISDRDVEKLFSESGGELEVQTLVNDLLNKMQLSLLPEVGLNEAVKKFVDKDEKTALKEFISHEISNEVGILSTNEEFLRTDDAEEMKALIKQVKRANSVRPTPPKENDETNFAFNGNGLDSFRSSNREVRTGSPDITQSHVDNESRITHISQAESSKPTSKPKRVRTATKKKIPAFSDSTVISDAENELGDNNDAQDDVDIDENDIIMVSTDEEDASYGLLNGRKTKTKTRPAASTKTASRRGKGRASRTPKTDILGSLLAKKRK


Experiments:
[1] = molecular target: T1, LexA-Pch2 (S. cerevisiae); experiment: two-hybrid; spot assay in strain L40; LexA DNA binding domain and Gal4 activation domain fusions; growth on SC-Leu-Trp-His plus 1 mM 3-AT, 3-5 days
[2] = molecular target: T2, Mre11 (yeast two-hybrid construct) (S. cerevisiae); experiment: as above

Binder	binding [1]	binding [2]
Xrs2 (full-length, Gal4AD fusion in pACT2-2) (protein, UniProt P33301 1-854) MWVVRYQNTLEDGSISFISCCLQAFKTYSIGRSSKNPLIIKNDKSISRQHITFKWEINNSSDLKHSSLCLVNKGKLTSLNKKFMKVGETFTINASDVLKSTIIELGTTPIRIEFEWINEVWNIPPHLTQFRTMLSEYGISTEISINDIPANLMISDYPKSEDNSIRELYALVSTIPMKKSRFLMELCNTLLPTSKTNLKFDEMWNDMISNPEYNVFDFDPNILLSKFMRLNNIRVLTTIKSEPRLSSLLRTFNINLFAFDNIDSLYKYVDSLEASTEYLILTTTDKKENGKILCTIKTMLTSIIDGTLSAVINMKGASSRTLDNGKFDQISEGMSTILKTSRAPEVEASPVVSKKRKLNRRRVLPLDSLDFFAGGLSTKTLSENRSLTDAKRLNCGAESKTVISSPNIAEADEKHAPFLQNALKPTEDIGKKSGHSSPGAIIVSSPNLGTVNTSEDSLDKSLQSHKLPQPSLPEVAGIGSQTISSNSADYETAAVNSMDDAEVTKNFRVNHHQNIEQPSKNIRKLSNYSREISSPLQENCKSPVKELSIKEKSGTPHAFVEAIQETKNREVKRVKSTIVELKDEELSEEAINQLKNLAIVEPSNNLLRKSFDSEGNKTSRTTEKWENSLMEPEWHKRKNFKTFVKVRPKSKAHKEEGKNNTQSSDFIRNAAFLITRNYVPLKKYSKKDTTTKWGTEENEDMFALTEMERFGSNTFMSDNINSNTIQKRSQALNRFTNEDSSNEGEEDSFSFSRCSGTAASVQPLKNKIFITDEDDLGDIDDKSDRLNHRENNRNLFVVKEMNLRPNLSEECSKQSRHSRSATSRSRGSFGASNNGDGDDDDDDGPKFTFKRRKG	binds	binds
Xrs2(1–313)-S47A H50A (domain or fragment, UniProt P33301 1-313) MWVVRYQNTLEDGSISFISCCLQAFKTYSIGRSSKNPLIIKNDKSIARQAITFKWEINNSSDLKHSSLCLVNKGKLTSLNKKFMKVGETFTINASDVLKSTIIELGTTPIRIEFEWINEVWNIPPHLTQFRTMLSEYGISTEISINDIPANLMISDYPKSEDNSIRELYALVSTIPMKKSRFLMELCNTLLPTSKTNLKFDEMWNDMISNPEYNVFDFDPNILLSKFMRLNNIRVLTTIKSEPRLSSLLRTFNINLFAFDNIDSLYKYVDSLEASTEYLILTTTDKKENGKILCTIKTMLTSIIDGTLSAVIN	binds	
Rad50 (yeast two-hybrid construct) (protein, UniProt P12753 1-1312) MSAIYKLSIQGIRSFDSNDRETIEFGKPLTLIVGMNGSGKTTIIECLKYATTGDLPPNSKGGVFIHDPKITGEKDIRAQVKLAFTSANGLNMIVTRNIQLLMKKTTTTFKTLEGQLVAINNSGDRSTLSTRSLELDAQVPLYLGVPKAILEYVIFCHQEDSLWPLSEPSNLKKKFDEIFQAMKFTKALDNLKSIKKDMSVDIKLLKQSVEHLKLDKDRSKAMKLNIHQLQTKIDQYNEEVSEIESQLNEITEKSDKLFKSNQDFQKILSKVENLKNTKLSISDQVKRLSNSIDILDLSKPDLQNLLANFSKVLMDKNNQLRDLETDISSLKDRQSSLQSLSNSLIRRQGELEAGKETYEKNRNHLSSLKEAFQHKFQGLSNIENSDMAQVNHEMSQFKAFISQDLTDTIDQFAKDIQLKETNLSDLIKSITVDSQNLEYNKKDRSKLIHDSEELAEKLKSFKSLSTQDSLNHELENLKTYKEKLQSWESENIIPKLNQKIEEKNNEMIILENQIEKFQDRIMKTNQQADLYAKLGLIKKSINTKLDELQKITEKLQNDSRIRQVFPLTQEFQRADLEMDFQKLFINMQKNIAINNKKMHELDRRYTNALYNLNTIEKDLQDNQKSKEKVIQLLSENLPEDCTIDEYNDVLEETELSYKTALENLKMHQTTLEFNRKALEIAERDSCCYLCSRKFENESFKSKLLQELKTKTDANFEKTLKDTVQNEKEYLHSLRLLEKHIITLNSINEKIDNSQKCLEKAKEETKTSKSKLDELEVDSTKLKDEKELAESEIRPLIEKFTYLEKELKDLENSSKTISEELSIYNTSEDGIQTVDELRDQQRKMNDSLRELRKTISDLQMEKDEKVRENSRMINLIKEKELTVSEIESSLTQKQNIDDSIRSKRENINDIDSRVKELEARIISLKNKKDEAQSVLDKVKNERDIQVRNKQKTVADINRLIDRFQTIYNEVVDFEAKGFDELQTTIKELELNKAQMLELKEQLDLKSNEVNEEKRKLADSNNEEKNLKQNLELIELKSQLQHIESEISRLDVQNAEAERDKYQEESLRLRTRFEKLSSENAGKLGEMKQLQNQIDSLTHQLRTDYKDIEKNYHKEWVELQTRSFVTDDIDVYSKALDSAIMKYHGLKMQDINRIIDELWKRTYSGTDIDTIKIRSDEVSSTVKGKSYNYRVVMYKQDVELDMRGRCSAGQKVLASIIIRLALSETFGANCGVIALDEPTTNLDEENIESLAKSLHNIINMRRHQKNFQLIVITHDEKFLGHMNAAAFTDHFFKVKRDDRQKSQIEWVDINRVTY	no binding	binds

Now from value to binder:

binding [1]	binding [2]	Binder
binds		Xrs2(1–313)-Gal4AD (domain or fragment, UniProt P33301 1-313) MWVVRYQNTLEDGSISFISCCLQAFKTYSIGRSSKNPLIIKNDKSISRQHITFKWEINNSSDLKHSSLCLVNKGKLTSLNKKFMKVGETFTINASDVLKSTIIELGTTPIRIEFEWINEVWNIPPHLTQFRTMLSEYGISTEISINDIPANLMISDYPKSEDNSIRELYALVSTIPMKKSRFLMELCNTLLPTSKTNLKFDEMWNDMISNPEYNVFDFDPNILLSKFMRLNNIRVLTTIKSEPRLSSLLRTFNINLFAFDNIDSLYKYVDSLEASTEYLILTTTDKKENGKILCTIKTMLTSIIDGTLSAVIN
binds		Xrs2(126–313)-Gal4AD (domain or fragment, UniProt P33301 126-313) HLTQFRTMLSEYGISTEISINDIPANLMISDYPKSEDNSIRELYALVSTIPMKKSRFLMELCNTLLPTSKTNLKFDEMWNDMISNPEYNVFDFDPNILLSKFMRLNNIRVLTTIKSEPRLSSLLRTFNINLFAFDNIDSLYKYVDSLEASTEYLILTTTDKKENGKILCTIKTMLTSIIDGTLSAVIN
no binding		Mre11 (yeast two-hybrid construct) (protein, UniProt P32829 1-692) MDYPDPDTIRILITTDNHVGYNENDPITGDDSWKTFHEVMMLAKNNNVDMVVQSGDLFHVNKPSKKSLYQVLKTLRLCCMGDKPCELELLSDPSQVFHYDEFTNVNYEDPNFNISIPVFGISGNHDDASGDSLLCPMDILHATGLINHFGKVIESDKIKVVPLLFQKGSTKLALYGLAAVRDERLFRTFKDGGVTFEVPTMREGEWFNLMCVHQNHTGHTNTAFLPEQFLPDFLDMVIWGHEHECIPNLVHNPIKNFDVLQPGSSVATSLCEAEAQPKYVFILDIKYGEAPKMTPIPLETIRTFKMKSISLQDVPHLRPHDKDATSKYLIEQVEEMIRDANEETKQKLADDGEGDMVAELPKPLIRLRVDYSAPSNTQSPIDYQVENPRRFSNRFVGRVANGNNVVQFYKKRSPVTRSKKSGINGTSISDRDVEKLFSESGGELEVQTLVNDLLNKMQLSLLPEVGLNEAVKKFVDKDEKTALKEFISHEISNEVGILSTNEEFLRTDDAEEMKALIKQVKRANSVRPTPPKENDETNFAFNGNGLDSFRSSNREVRTGSPDITQSHVDNESRITHISQAESSKPTSKPKRVRTATKKKIPAFSDSTVISDAENELGDNNDAQDDVDIDENDIIMVSTDEEDASYGLLNGRKTKTKTRPAASTKTASRRGKGRASRTPKTDILGSLLAKKRK
